The values that follow are results of earlier work, collected in PubChem BioAssay AID1259410 (Chemical Carcinogenesis Research Information System (CCRIS), 2018).

The source gives many values for each of these; only a part stands here.

The test system of the data set is rodent tumor promotion studies, tumor incidence. The data set can be described thus: CCRIS tumor promotion studies. The conditions noted are these: Route [Carcinogen]: DERMAL, Route [Promoter]: DERMAL, Species: MOUSE. From the text: The CCRIS database contains chemical records with carcinogenicity, mutagenicity, tumor promotion, and tumor inhibition test results. It was developed by the National Cancer Institute (NCI). Data are derived from studies cited in primary journals, current awareness tools, NCI reports, and other sources. Test results have been reviewed by experts in carcinogenesis and mutagenesis.
CCRIS provides historical information from the years 1985 - 2011. It is no longer updated.
This is an archive assay for CCRIS tumor promotion studies.

In the case of `CCCCCCCCCCCCCC(=O)O[C@@H]1[C@@H](C)[C@@]2(O)[C@@H](C=C(CO)C[C@]3(O)C(=O)C(C)=C[C@@H]23)[C@@H]2C(C)(C)[C@]12OC(C)=O`, the outcome (Carcinogen: (1AS,2S,3R,13CR)-1A,2,3,13C-TETRAHYDROBENZ[C]OXIRENO[5,6]BENZ[1,2-H]ACRIDINE-2,3 -DIOL, 93780-95-1, Carcinogen: (1AS,2S,3R,13CR)-1A,2,3,13C-TETRAHYDROBENZ[C]OXIRENO[5,6]BENZ[1,2-H]ACRIDINE-2,3 -DIOL, 93780-95-1, Doses [Carcinogen]: 0, 50, 200 NMOL IN 0.2 ML ACETONE ONCE (STUDY DURATION: 150 D), Doses [Carcinogen]: 0, 50, 200 NMOL IN 0.2 ML ACETONE ONCE (STUDY DURATION: 150 D), Doses [Promoter]: 0, 16 NMOL IN 0.2 ML ACETONE 2/WK FOR 20 WK BEGINNING 10 D POST CARCINOGEN DOSE (STUDY DURATION: 150 D), Doses [Promoter]: 0, 16 NMOL IN 0.2 ML ACETONE 2/WK FOR 20 WK BEGINNING 10 D POST CARCINOGEN DOSE (STUDY DURATION: 150 D), Strain/Sex: CD-1/FEMALE) was “skin: papilloma”; the outcome (Carcinogen: (1AS,13CR)-1A,2,3,13C-TETRAHYDROBENZ[C]OXIRENO[5,6]BENZ[1,2-H]ACRIDINE, 93781-05-6, Carcinogen: (1AS,13CR)-1A,2,3,13C-TETRAHYDROBENZ[C]OXIRENO[5,6]BENZ[1,2-H]ACRIDINE, 93781-05-6, Doses [Carcinogen]: 0, 50, 200 NMOL IN 0.2 ML ACETONE ONCE (STUDY DURATION: 150 D), Doses [Carcinogen]: 0, 50, 200 NMOL IN 0.2 ML ACETONE ONCE (STUDY DURATION: 150 D), Doses [Promoter]: 0, 16 NMOL IN 0.2 ML ACETONE 2/WK FOR 20 WK BEGINNING 10 D POST CARCINOGEN DOSE (STUDY DURATION: 150 D), Doses [Promoter]: 0, 16 NMOL IN 0.2 ML ACETONE 2/WK FOR 20 WK BEGINNING 10 D POST CARCINOGEN DOSE (STUDY DURATION: 150 D), Strain/Sex: CD-1/FEMALE) is “skin: papilloma”; the outcome (Carcinogen: (3R,4R)-3,4-DIHYDRO-DIBENZ[C,H]ACRIDINE-3,4-DIOL, 93780-91-7, Carcinogen: (3R,4R)-3,4-DIHYDRO-DIBENZ[C,H]ACRIDINE-3,4-DIOL, 93780-91-7, Doses [Carcinogen]: 0, 50, 200 NMOL IN 0.2 ML ACETONE ONCE (STUDY DURATION: 150 D), Doses [Carcinogen]: 0, 50, 200 NMOL IN 0.2 ML ACETONE ONCE (STUDY DURATION: 150 D), Doses [Promoter]: 0, 16 NMOL IN 0.2 ML ACETONE 2/WK FOR 20 WK BEGINNING 10 D POST CARCINOGEN DOSE (STUDY DURATION: 150 D), Doses [Promoter]: 0, 16 NMOL IN 0.2 ML ACETONE 2/WK FOR 20 WK BEGINNING 10 D POST CARCINOGEN DOSE (STUDY DURATION: 150 D), Strain/Sex: CD-1/FEMALE) was “skin: papilloma”; the outcome (Carcinogen: ((+/-)-(E)-4-METHYL-2[(E)-HYDROXYIMINO]-5-NITRO-6-METHOXY-3-HEXENAMIDE), Doses [Carcinogen]: 390 NMOL, Doses [Promoter]: 0, 1.7 NMOL FOR 20 WK (STUDY DURATION:20 WK), Doses [Promoter]: 0, 1.7 NMOL FOR 20 WK (STUDY DURATION:20 WK), Strain/Sex: SENCAR) is on record as “skin: papilloma”; the outcome (Carcinogen: (+)-(11S,12S)-DIBENZO[A,1]PYRENE DIHYDRODIOL, 189880-64-6, Carcinogen: (+)-(11S,12S)-DIBENZO[A,1]PYRENE DIHYDRODIOL, 189880-64-6, Doses [Carcinogen]: 20, 40 NMOL IN 100 µL ACETONE ONCE, Doses [Carcinogen]: 20, 40 NMOL IN 100 µL ACETONE ONCE, Doses [Promoter]: 10 NMOL IN 100 µL ACETONE 2/WK FOR 24 WK BEGINNING 1 WK POST CARCINOGEN DOSE (STUDY DURATION: 25 WK), Strain/Sex: NMRI/FEMALE) was “skin: tumor”; the outcome (Carcinogen: (+/-)-ANTI-7,12-DIMETHYLBENZ[A]ANTHRACENE-3,4-DIOL-1,2-EPOXIDE [86941-58-4], Doses [Carcinogen]: 0, 10, 50, 100 NMOL IN 0.2 ML ACETONE ONCE (STUDY DURATION: 22 WK), Doses [Carcinogen]: 0, 10, 50, 100 NMOL IN 0.2 ML ACETONE ONCE (STUDY DURATION: 22 WK), Doses [Promoter]: 3.24 NMOL IN 0.2 ML ACETONE 2X/WK FOR 20 WK BEGINNING 2 WK POST CARCINOGEN DOSE(STUDY DURATION: 22 WK), Strain/Sex: SENCAR/FEMALE) is “skin: tumor”. The outcome by setting is: (Carcinogen: (+/-)-SYN-7,12-DIMETHYLBENZ[A]ANTHRACENE-3,4-DIOL-1,2-EPOXIDE [86941-59-5], Doses [Carcinogen]: 0, 10, 50, 100 NMOL IN 0.2 ML ACETONE ONCE (STUDY DURATION: 22 WK), Doses [Carcinogen]: 0, 10, 50, 100 NMOL IN 0.2 ML ACETONE ONCE (STUDY DURATION: 22 WK), Doses [Promoter]: 3.24 NMOL IN 0.2 ML ACETONE 2X/WK FOR 20 WK BEGINNING 2 WK POST CARCINOGEN DOSE(STUDY DURATION: 22 WK), Strain/Sex: SENCAR/FEMALE) “skin: tumor”; (Carcinogen: (-)-(11R,12R)-DIBENZO[A,L]PYRENE DIHYDRODIOL, 189880-63-5, Carcinogen: (-)-(11R,12R)-DIBENZO[A,L]PYRENE DIHYDRODIOL, 189880-63-5, Doses [Carcinogen]: 10, 20, 40 NMOL IN 100 µL ACETONE ONCE, Doses [Carcinogen]: 10, 20, 40 NMOL IN 100 µL ACETONE ONCE, Doses [Promoter]: 10 NMOL IN 100 µL ACETONE 2/WK FOR 24 WK BEGINNING 1 WK POST CARCINOGEN DOSE (STUDY DURATION: 25 WK), Strain/Sex: NMRI/FEMALE) “skin: tumor”; (Carcinogen: (I)-11,12-DIBENZO[A,L]PYRENE-DIHYDRODIOL, 153857-27-3, Carcinogen: (I)-11,12-DIBENZO[A,L]PYRENE-DIHYDRODIOL, 153857-27-3, Doses [Carcinogen]: 40 NMOL IN 100 µL ACETONE ONCE, Doses [Promoter]: 10 NMOL IN 100 µL ACETONE 2/WK FOR 30 WK BEGINNING 1 WK POST CARCINOGEN DOSE (STUDY DURATION: 31 WK), Strain/Sex: NMRI/FEMALE) “skin tumor”.
